By % Inhibition is commonly meant the change of the read-out against control, counted positive when it falls.

In all, about 150,000 compounds went through this assay and about 540 (0.36%) showed an effect of 50% or more. Some of the results follow.

For the experiment, the system named is Plasmodium falciparum. Description: Primary screen in NF54 nanoGlo assay, in single point, at 2uM, 72h; a lower Z score goes with more inhibition. The class given is functional, Erythrocyte. As to conditions: timepoint 72 hour.
Take `CCc1nn(C)c(Cl)c1CN1CCN(c2ccnc3nncn23)CC1`: the “% Inhibition” value is on record as -4% and the Z score worked out at 0.4.

Turning to `CC(C)c1nn(C)c(Cl)c1C(=O)NC[C@@H](CO)C1CCCCC1`, the “% Inhibition” value is recorded as -14% and the Z score is listed as 2.45.

With `CO[C@@H](C)c1nc(Cc2noc(Cc3ccc(O)cc3)n2)cs1`, the “% Inhibition” value is on record as -13% and the Z score is reported as 1.62.

Turning to `CC(C)(C)OC(=O)[C@@H]1CCCCN1Cc1cn(CCN2CCCC2=O)nn1`, the “% Inhibition” value was -4% and the Z score was 0.62.

Take `c1ccc2nc(Nc3cn[nH]c3)cnc2c1`: the “% Inhibition” value was -10% and the Z score was determined as 1.6.

As for `CCN(C(=O)Cn1c(=O)n(-c2cc(C)cc(C)c2)c(=O)c2ccccc21)c1cccc(C)c1`, the “% Inhibition” value worked out at 30% and the Z score is given as -3.42.

Take `CCCc1nccn1-c1cccc(-c2nnc(C)s2)c1`: the “% Inhibition” value is listed as -8% and the Z score turned out to be 1.62.

Regarding `O=C(CCn1cccn1)NC1CNCCC1c1ccc(F)c(F)c1` (stereo not drawn), the “% Inhibition” value was -6% and the Z score amounted to 0.84.

Regarding `COc1ccccc1OCCC(=O)N1CC2CN(Cc3ccccc3)CC2C1` (stereo not drawn), the “% Inhibition” value is recorded as -3% and the Z score came out at 0.37.

As for `C[C@H](OCn1cc(NCCc2ccccc2)c(=O)[nH]c1=O)c1ccccc1`, the “% Inhibition” value is listed as 2% and the Z score is recorded as -0.35.

For `COCCc1nc2c(c(N3CCN(c4ccccn4)CC3)n1)CCOCC2`, the “% Inhibition” value is recorded as -19% and the Z score is 1.82.

Take `CC(C)C[C@H]1CN(C)CCN1C(=O)c1ncc[nH]1`: the “% Inhibition” value is recorded as -2% and the Z score is 0.16.

For the molecule `COc1ccccc1CCC(=O)N1CCC[C@H](c2[nH]ccc2C(N)=O)C1`, the “% Inhibition” value was -1% and the Z score was determined as 0.14.

Take `Nc1nc(CCC(=O)NCCc2ccc(S(N)(=O)=O)cc2)cs1`: the “% Inhibition” value is recorded as -26% and the Z score is recorded as 2.8.

Take `COc1ccc(CN2CCC(O)(CO)CC2)cc1Cn1cccn1`: the “% Inhibition” value stood at 4% and the Z score was -0.82.

Consider `Cc1oc(-c2ccccc2)nc1CNS(=O)(=O)c1ccc(Cl)cc1`, for which the “% Inhibition” value is reported as -1% and the Z score is listed as 0.08.

`COc1ccc(C=C(C)c2cnccn2)cc1C`: the “% Inhibition” value is -10% and the Z score is 1.38.

`CCOCCCN1C(=O)c2cc3ccc(OC)cc3n2C[C@@]1(C)C(=O)NC1CCCCCCC1`: the “% Inhibition” value came to 7% and the Z score is recorded as -1.14.

As to `O=S(=O)(c1ccc(N2CCCCC2)nc1)N1CCOCC1`, the “% Inhibition” value is reported as -15% and the Z score was found to be 2.83.

As for `NS(=O)(=O)c1ccc(CCNC(=O)c2ccc(-n3cnnc3)nc2)cc1`, the “% Inhibition” value was -10% and the Z score is given as 0.95.

On to `COCCn1nc2n(c1=O)CCN(C(=O)CC1=CCCCC1)CC2`, for which the “% Inhibition” value was -11% and the Z score worked out at 1.69.

On to `CCCCOc1ccc([C@@](C)(C#N)CC#N)cc1`, for which the “% Inhibition” value is -5% and the Z score was found to be 0.9.

As for `O=c1nc(NCc2ccco2)ccn1-c1nc(-c2ccccc2)sc1-c1ccccc1`, the “% Inhibition” value is given as -29% and the Z score is on record as 3.43.

On to `O=C(NCC1CCN(S(=O)(=O)Cc2ccc(F)cc2F)CC1)[C@@H]1CCCO1`, for which the “% Inhibition” value is listed as -27% and the Z score was 2.35.

(Values after ChEMBL document CHEMBL4888484, “Replenishing the malaria drug discovery pipeline: Screening and hit evaluation of the MMV Hit Generation Library 1 (HGL1) against asexual blood stage Plasmodium falciparum ,using a nano luciferase reporter read-out” (2022).)
